Some of the results follow. Shown are side measurements of this screen, not its main read-out; they come without a call. Most of these compounds were active or inconclusive in the main read-out, so they are no random draw.
Experiment: qHTS Assay for Lipid Storage Modulators (AID 1519)
Conditions: Drosophila S3 cells, BODIPY lipid droplet/cell ratio, laser cytometry, cells loaded with oleic acid
Outline: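 Cells seeded at 5,000 per well were treated with compounds over a concentration series and loaded with oleic acid (400 uM, as added). Lipid droplet fluorescence (488 nm excitation, 500-530 nm channel) was read by laser-scanning cytometry and normalized to 20 uM Triacsin C.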

[1] = measured here: cell count channel max response
[2] = measured here: lipid channel max response

| SMILES | max response [1] [%] | max response [2] [%] |
| --- | --- | --- |
| COc1ccc(C(=O)N2CCC3(CCCN(c4ccc(-c5ccccc5)cc4)C3)CC2)cc1 | 10.5 | -92.3 |
| O=C(c1cccc(F)c1)N1CCC2(CCCN(c3cccc(-c4ccccc4)c3)C2)CC1 | 24.2 | -24.7 |
| O=C(O)CC1CCCc2ccccc2C1O (stereo not given) | 5.41 | 7.79 |
| N[C@H](C(=O)O)[C@H](O)C(=O)O | 23.9 | 32.2 |
| OC[C@H]1O[C@@H](n2cnc3c(NCc4ccccc4)ncnc32)[C@H](O)[C@@H]1O | 51.2 | 68.8 |
| COc1ccc2[nH]cc(CCNc3ncncc3-c3ccoc3)c2c1 | -17.4 | -38.1 |
| Cc1cc(C)cc(C(=O)N(C)[C@H](Cc2ccc(-c3ccccc3)cc2)C(=O)N[C@@H](Cc2c[nH]c3ccccc23)C(=O)O)c1 | 52.7 | 68 |
| NC1=NCCCC1 | -9.83 | -10.7 |
| O=c1c(-c2ccc(Cl)cc2)nc2cnc(N3CCNCC3)nc2n1Cc1ccc(F)cc1 | -32.1 | -50.8 |
| N=C(N)c1ccc(N)cc1 | 45.3 | 45.3 |
| C[N+](C)(CCCCCC[N+](C)(C)CCCN1C(=O)c2cccc3cccc(c23)C1=O)CCCN1C(=O)c2cccc3cccc(c23)C1=O | 53 | 51.1 |
| CCCC(=O)NCCc1c2n(c3ccc(OC)cc13)Cc1ccccc1-2 | -66.9 | -68.6 |
| O=C(O)c1cc(=O)c2ccc(Cl)cc2[nH]1 | 54.1 | 42.9 |
| N[C@H](C(=O)O)c1cccc(O)c1 | 25.9 | 29.3 |
| NCCC(=O)NCCc1cnc[nH]1 | 44.2 | 46.1 |
| O=c1oc2c(O)c(O)cc3c(=O)oc4c(O)c(O)cc1c4c23 | 8.02 | 8.92 |
| N[C@H](Cc1ccc(O)c(O)c1)C(=O)O | 58.6 | 58.4 |
| Cc1ccc(S(=O)(=O)NC(=O)NN2CCCCCC2)cc1 | 49.3 | 46.7 |
| NC(N)=NCCC[C@H](N)C(=O)O | 41.7 | 42.6 |
| CC(C)=CCC/C(C)=C/CC/C(C)=C/CSc1ccccc1C(=O)O | 55.9 | 56.3 |
| C=CC[C@H](N)C(=O)O | 33.5 | 34.4 |
| C[C@@H]1c2ccccc2CN1CC1=NCCN1 | 64.7 | 92 |
| CN1CCN(CC/C=C2/c3ccccc3Sc3ccc(S(=O)(=O)N(C)C)cc32)CC1 | 47.9 | 52.3 |

| SMILES | max response [1] [%] | max response [2] [%] |
| --- | --- | --- |
| Cc1cccc(C)c1NC(=O)C[N+](C)(C)C | 41.9 | 43 |
| Cc1nc2c(O)cccc2c(=O)[nH]1 | 103 | 131 |
| Nc1ccc(S(=O)(=O)Nc2ccnn2-c2ccccc2)cc1 | 44.8 | 45.9 |
| CC1=C(\C=C/C(C)=C/C=C\C(C)=C\C(=O)O)C(C)(C)CCC1 | 75.5 | 89.4 |
| c1ccc(-c2ccccn2)nc1 | -12.2 | -9.36 |
| CC1(C)C(=O)C=C[C@]2(C)C1CC(=O)[C@]1(C)C2CC[C@@]2(C)C(c3ccoc3)OC(=O)C3O[C@@]321 (stereo not given in full) | -5.72 | -26.2 |
| NC(=O)OCC(COC(N)=O)c1ccccc1 | 44 | 46.7 |
| N[C@@H](Cn1ccc(=O)n(Cc2ccccc2C(=O)O)c1=O)C(=O)O | 26.8 | 32.8 |
| C[C@@H](NCc1cc(Br)cc2[nH]c(=O)c(=O)[nH]c12)P(=O)(O)O | 4.05 | 8 |
| N[C@@H](Cc1cc(CP(=O)(O)O)cc(-c2ccccc2Cl)c1)C(=O)O | 28.7 | 32.4 |
| COCCOC(=O)C1=C(C)NC(C)=C(C(=O)OC(C)C)[C@@H]1c1cccc([N+](=O)[O-])c1 | 56.7 | 72.1 |
| N[C@@H](C(=O)O)c1cc(O)ccc1Cl | 70.5 | 90.5 |
| CC[N+](CC)(CC)CCOc1ccc(/C=C\c2ccccc2)cc1 | 25.2 | -19.1 |
| OC[C@H]1NC[C@@H](O)[C@@H]1O | 36.7 | 40.6 |
| COc1ccc2[nH]cc(CCNc3nc(-c4ccc(N(C)C)cc4)nc4ccccc34)c2c1 | -34.6 | -47.6 |
| O=c1cc(-c2ccccc2)oc2cc(O[C@@H]3O[C@H](CO)[C@@H](O)[C@H](O)[C@H]3O)c(O)c(O)c12 | 14.9 | 23.8 |
| Nn1nnc2ccccc21 | 82.8 | 85.2 |
| CCCCCCCCCCC/C=C\C(C)(C)/C=C\CCCC(=O)O | 45.3 | 48.5 |
| COc1ccc(OC)c2c(=S)c3ccccc3[nH]c12 | 18.6 | 10.8 |
| COc1ccc2oc(-c3ccc(O)cc3)cc(=O)c2c1 | 53.5 | 64.9 |
| CC(C)NCC(O)COc1cccc2[nH]ccc12 (stereo not given) | 56.5 | 59.6 |
| CN1CCc2cc(Cl)c(O)cc2C(c2ccccc2)C1 (stereo not given) | 41.8 | 41.1 |

Source: PubChem BioAssay (NCATS)
